This is one part of the list.
tested on: PfHDP1 homeodomain (GST-tagged); assay: gcPBM binding intensity (ln(normalized median fluorescence intensity)); higher = stronger DNA binding
Method in brief: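 After 1 h on an Agilent 4 × 180k array of primer-extended double-stranded 36-bp intergenic genomic probes and negative controls, bound GST-tagged P. falciparum DNA-binding domains were detected with Alexa488 anti-GST antibody and scanned at 488 nm. The domains had been expressed in E. coli, and binding took place in 1× PBS with 1% milk, 0.2 mg/ml BSA, 0.5% salmon testes DNA and 0.03% Triton X-100. Binding intensity is the highest Masliner-normalised natural-log median intensity across replicate spots of either probe orientation.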

Row | Sequence | gcPBM binding intensity (ln)
1 | TATTCAATACTTAATGCACACAATAAAAAAAATATG [CACACA_site2467] | 10.5
2 | ACGATAACATTTTTACGTACATATATTTTCACGGAG [XGTACX_site8764] | 6.46
3 | TTTTCAAAAATATATACACACATGCATATTACGGTG [CACACA_site775] | 7.02
4 | TACATGATAAGATGTAGTACATAAAAGAATAAATTA [XGTACX_site787] | 6.49
5 | ATATATATATATAAGCGTACGCGTAGTTAAATTAAT [XGTACX_site7693] | 9.12
6 | TATGTTATATTGGACACACACAATAAACATTATGTA [CACACA_site1657] | 6.27
7 | ACAAAAAAAATAAGCACACATATATATATATATATA [CACACA_site816] | 9.27
8 | ATATTGACAGGAAAAATTTTCTTTGAATCTTTAAAA [CACACA_negctrl_site1191] | 6.11
9 | TAAAATATTTCAAAGGTGCAATGATAATTTAAGACG [GTGCAC_site9609] | 8.47
10 | AAATGAAAAATAAGGAAAAAAAAAAAAAAAAAAAAA [CACACA_negctrl_site1715] | 6.31
11 | ATAATATTTATAAATTGTACTAATGTTCAATAATTA [XGTACX_site7284] | 6.25
12 | TTTTGTCGGAAATCGGATAAGAAGAAAAAAAATAAT [GTGCAC_negctrl_site594] | 6.61
13 | AAAAAAAAAAAAAGTACACACATACATATAAATATA [CACACA_site8533] | 6.38
14 | TTCACTCCATATTATACACACACACTAATGAAAAAA [CACACA_site8991] | 7.24
15 | CCACTAATTATGTGCACACAAATTAAAGGTCTACAA [CACACA_site4259] | 11.4
16 | AAATTTTATAAAGGAACACACATTTTTTTTTTTTCT [CACACA_site2368] | 6.13
17 | GAAATAATTTTTATTTGTACACACATACATATATAT [XGTACX_site1862] | 6.63
18 | TTATTCATTTCGAAAAGTACAAATTCTGTTTATTAT [XGTACX_site6892] | 6.4
19 | AAATTTTTTGTTCAATGTACTTTTTTATTATATTTT [XGTACX_site5298] | 6.49
20 | TCTACTATTATATATTGTACAAATGATACTTATATT [XGTACX_site1819] | 6.61
21 | ATTTTTTAAATTTAAACACACATTTTGTATATGTTT [CACACA_site1654] | 6.84
22 | GATATATAATATAATACACACATTTTATGAATGTAA [CACACA_site24] | 6.54

Row | Sequence | gcPBM binding intensity (ln)
23 | AAAAAAAAAAAACATACACACATACATACAGATATA [CACACA_site4681] | 6.56
24 | TTCTTTTTGAAACACACACACACAAGAAAATATATA [CACACA_site3110] | 7.04
25 | TTCTATTTTATATGTGCACACATATACACCCACAAA [CACACA_site1130] | 10.9
26 | TTTCACTACACAAATACACACAAAAATATATGTGCA [CACACA_site2632] | 7.11
27 | CGTTATATCAAAGGAGTGCATTATGAATACGTTTTA [GTGCAC_site9837] | 8.79
28 | AGTGAATATCTAAAATGTACATAAATAAATAAATAA [XGTACX_site8293] | 6.74
29 | AATATATTATATATATGTACATAATGTGTAATACCT [XGTACX_site2845] | 7
30 | TTAAAATTTTTCAAAAGTACATAAATAATATATATT [XGTACX_site4694] | 6.43
31 | AAAAAAAATTCATATTGTACTTTTAAATTAAAGAAA [XGTACX_site4521] | 6.19
32 | TTTATTTGTTCATGCGTGCACTTGATAACAATGTAC [GTGCAC_site9561] | 8.53
33 | TTTTTTTTTGTTAAAGTGCATATATTAAATTTTCCT [GTGCAC_site9677] | 7.82
34 | GGAAAAAAATATAAAAGTACTTTTTATTTATTTTAT [XGTACX_site7418] | 6.2
35 | TATAATTAAAATTTGTGTACGTATGACAAAACATTT [XGTACX_site7072] | 6.42
36 | AGATACAAGCACTATAGTACACATACTAAAAATATA [XGTACX_site5849] | 6.48
37 | TTTCCTTACCCTTTCCTGGTGTAGAAATTATACTCT [TGCATGCA_negctrl_site116] | 6.53
38 | AAAAAAATAACAAAAGTGCATTTTTATGAGTTATCT | 7.2
39 | ATATATAATTAATAAAGTACATTAATTATTTCTTTT [XGTACX_site3034] | 5.99
40 | TTCCTTCAAAATTTAAGTAATAAGATAAAAATATAA [CACACA_negctrl_site1696] | 6.29
41 | CACAGATAAATTAACACACACACACGGATATTTATA [CACACA_site7788] | 6.69
42 | ATGTATACAAATATATGTACGTATGTTCTCTTCTTT [XGTACX_site7865] | 6.6
43 | TAAAGAGTTACCATTTGTACTTACGCACACATAAAA [XGTACX_site3145] | 6.8
44 | TTTTTATGTTATCAAATAAATATAAATATAATTCAT [CACACA_negctrl_site1522] | 5.89

Row | Sequence | gcPBM binding intensity (ln)
45 | TATATTTGAAATATATGTACTTATAATACAGTTTAA [XGTACX_site8039] | 6.42
46 | TTATATGTATTTCTTTGTACACATTTTTATATATAT [XGTACX_site1462] | 7.16
47 | TAAATTTTATAAATCTGTACATATGAGCAAGAACAT [XGTACX_site7400] | 8.01
48 | TATCATTTTTTTAAAACACACATAATAATATAAATA [CACACA_site2845] | 6.66
49 | CACTTCAAAAAAATATGTACACATATATATATATAT [XGTACX_site3075] | 9.39
50 | ATTATGCACCAACACACACACACACCCCTAAAAAAT [CACACA_site2568] | 11.5
51 | GGTAATAAACAATGAAGTACGTAAAGGTAAAATATT [XGTACX_site2647] | 7.27
52 | TTATTAGGTATATATGCACACAATACCCAAAACAAC [CACACA_site4221] | 9.98
53 | TATTTTCAAAAATATACACACACATAAATATATGTA [CACACA_site8160] | 6.5
54 | ATTTAATTTTCATGATGTACTATAGTTTAATGCACA [XGTACX_site1624] | 9.18
55 | TAATAATCAAACTATACACACATAAATAGATATATA [CACACA_site6220] | 6.52
56 | TGTAAATATAAATGTAATAAATATGTAAAAATAAAT [XGTACX_negctrl_site171] | 6.35
57 | ATCTATATTTTTATAACACACAATGATGTACATTAC [CACACA_site6633] | 6.74
58 | TAGAATAATCTATAAACACACAAACCCAACAAAAGA [CACACA_site6132] | 7.14
59 | TGAAAATATTTTATATGTACATATATTATCAATACA [XGTACX_site92] | 6.64
60 | TTATTTATTTTTTCATGTACTTAAATATATTAATGT [XGTACX_site5804] | 6.66
61 | ATATATAAATTTAATACACACCCAAAAAAAAAAAAA [CACACA_site7719] | 6.57
62 | GAATGAATACGTTTTACACACTTGAATATAATTTCA [CACACA_site989] | 6.36
63 | AAAATTATAAAATGGGCACACATGAAGATTGTAGTA [CACACA_site2226] | 6.67
64 | TAAATATATAAACACACACACATTAATACAGATATT [CACACA_site5851] | 6.78
65 | AATATATAATTAATTGCACACCTTGTCACGCCAAAA [CACACA_site1174] | 8.98
66 | TATTAATACAGACACACACACACACTAATTAAAATA [CACACA_site7967] | 6.97

Row | Sequence | gcPBM binding intensity (ln)
67 | ATTTACCCTTGCCATGCACACTTTTTTATAGAAAAT [CACACA_site5857] | 8.72
68 | AAAGTATAACGGATACCATTTATGTGATTATTTTGT [XGTACX_negctrl_site188] | 6.1
69 | TATATATTTTTATGCACACACAAAGAAAATTTTCCT [CACACA_site2863] | 10.8
70 | AAAAAAAATTAAAATAAAATATAAATATAAAATATA [GTGCAC_negctrl_site714] | 6.2
71 | AGCTATAATAAATATACACACATATATAAATATGTA [CACACA_site6583] | 6.42
72 | ATATATATATAATAAGTGCAAAAATAATGACCTATA | 9.42
73 | AAATATATATAAGCGTGTACACATTCTGAGTGTTGT [XGTACX_site1088] | 7.09
74 | TATCGTTTTATTCGGTTGCACCAAAAAAATAAAATA [GTGCAC_site9408] | 9.05
75 | ATAATAAAAATAAAATGTACATACATAAATATATAT [XGTACX_site6228] | 6.71
76 | ATACTTTTAATATGCACATGCAAATATGAAATATCG [TGCATGCA_site603] | 10.1
77 | TTTGGCTAGTCAAGTTGTACAAAAAAAAAAAAAAAA [XGTACX_site8382] | 6.18
78 | TACCAAAAGAAACACACACACAAAATATATAAATAT [CACACA_site1869] | 6.78
79 | TCCCATATATATATATATATATATATATATAATAAT [TGCATGCA_negctrl_site41] | 7.65
80 | TGTATGTATTTGTGTAGTACGCATAAGTAATAAAAC [XGTACX_site6704] | 7.17
81 | AATTTATATTAAAATTGTACATTTCTTCTATAATAC [XGTACX_site8639] | 6.29
82 | AAATAAAAAAAATAAAAGCAATCATAATAAAAATCT [CACACA_negctrl_site161] | 6.34
83 | AATATATTTAATGAGTGTACATTATTTATTATTATT [XGTACX_site6889] | 6.3
84 | ATTTTTTATGAAAACATAAAAAAATGAGATAACCAT [CACACA_negctrl_site894] | 6.46
85 | AAAAAAAAAAGACACACACACACACGGACACATACA [CACACA_site7363] | 6.92
86 | CTATCAAATAATAGCAAACACACAAAAAATAAAAAA [CACACA_site4147] | 6.57
87 | AAAAAAAAAAAAAAATCACACATTGGTTAAATATTA [CACACA_site5344] | 6.37
88 | ATTCATACATGCACACGTACATATTTAAATATAAAA [XGTACX_site8388] | 8.36

From the supplement of paper PMC11417369
